Source: US20040157314A1 (PHAGETECH, published 2004)

Target: T1, STAAU_R12 (S. aureus RNA polymerase primary sigma factor), native protein of S. aureus RN4220 (Staphylococcus aureus, UniProt P0A0I8 1-368)
T1 construct: also called PT46; sigma SA
Assay: affinity chromatography of S. aureus lysate on GST cross-linked to Affigel 10, SDS-PAGE silver stain

B1: GST (other)
chain: not shown
notes: also called GST control
binding result: no binding
